According to PMC12136788:
This is one part of the list.

B1: chr10:88199856:88199857:+_ENSMUSG00000060904_ENSMUST00000116234|mus_mus|motif|central (ssRNA)
RNA: GGGAGUUCUACAGUCCGACGAUCUGCAUCUGUGUUUGAAUAAUAACAUCUCCAGUAUGGCCUGAUACUUGUCUGUCCUCCGGAGUCCCAAACUUGGAAUUUGAGAUUUUUGUAUGUCACCGUCUCCACAUUAAAUCCAAUAGUCAACAGAGGAUUGAGCAUCA
B2: 63821821_63821941_3485_3pUTR_ENSMUSG00000027823_ENSMUST00000029405|mouse|control|control (ssRNA)
RNA: GGGAGUUCUACAGUCCGACGAUCUUCUCACUGGGACAAUGAACACUUCAGCUUUUGUAGAAGACAAAUAGUGUUUCCAGUGUGGAUGUCUGCUGUUAGAGAUCUUUUCCUCUUGGUUCAGCAGCAGUUUCUGGCUAUCUAUAGCAACAGAGGAUUGAGCAUCA
B3: 95862298_95863879_1011_CDS_ENSG00000164941_ENST00000520526|human|control|control (ssRNA)
RNA: GGGAGUUCUACAGUCCGACGAUCUCAUACCAUGUAAUUCAAUUAAAAUUUGUCUAAUCCUCCAAGGAUCCACUGACAAUAUAAGUUGAUGCUCUAACUGACCAAUGUUGACACUUGCUGAAGCUGGGAUAUCAUAAAAUGAAGCAACAGAGGAUUGAGCAUCA
B4: chr17:32491106:32491107:-_ENSMUSG00000024050_ENSMUST00000163107|mus_mus|FALSE|FALSE (ssRNA)
RNA: GGGAGUUCUACAGUCCGACGAUCCAUUGAUAACCAAAAGGUGGCCACUGAAAAGGUUAAAAGGUCAAUUAGCUCCCGGUAUCUAGCUGGCCCAGGAUUGCAAAAUAAAAAGAUCCACGUUCCUUAUUCUCUACACAAAACGCACAACAGAGGAUUGAGCAUCA
B5: chr11:79222206:79222207:+_ENSMUSG00000020716_ENSMUST00000071325|mus_hu|FALSE|FALSE (ssRNA)
RNA: GGGAGUUCUACAGUCCGACGAUCUUUUGUAAAUUCAUCUGGAUAAUUUUCUACCCAGUUCCAAAAUGCCUUUUCCAGGCUAUUUAUAACUGCUAACUGCGCAACCUUCUUUAGGGCUUUAAAUUUAAAUGCUGUUUCCUUCAGCAACAGAGGAUUGAGCAUCA
B6: chr5:132216804:132216805:-_ENSG00000072364_ENST00000265343|hu_hu|FALSE|FALSE (ssRNA)
RNA: GGGAGUUCUACAGUCCGACGAUCAGAUAUCAACUUGGCAUCCUGGCGAAGCCAGUGCAGUCCCUGCCGGGUAUAACGAACUAGAUCUGUCAUGAUGCUUGCAUUAAAGAUGAGAGGGCCCAUUACUUUAUCCAGUUCAGCAAACAACAGAGGAUUGAGCAUCA
B7: chr11:116399779:116399780:-_ENSMUSG00000020802_ENSMUST00000082152|mus_hu|FALSE|FALSE (ssRNA)
RNA: GGGAGUUCUACAGUCCGACGAUCCGUCACCCGGAACCUAGCCUGGUCCCAACCUCUCUUAGAGAGCAAGUUCAACAGGCCUGAGGGCUAUAACGUGGUCGACAGGCCAUGUAUAGCCGGGAGUCAGUGACAGCAGCUACAACUCAACAGAGGAUUGAGCAUCA
B8: chr7:148047826:148047827:+_ENSMUSG00000025485_ENSMUST00000026558|mus_mus|motif|central (ssRNA)
RNA: GGGAGUUCUACAGUCCGACGAUCCCCCAUGGGUUGGAUGACUCUGUGCCUGGAGAGCUUGUCAAACAUGUUCACGGGCUUCAUGGCCUCAUGUUCCUUCUGCUCCUCUGUCAUGCCUUCCAUAGGAUUAGGCGGCUUCUCCUCCAACAGAGGAUUGAGCAUCA
B9: chr2:32339754:32339755:+_ENSG00000021574_ENST00000315285|hu_mus|FALSE|FALSE (ssRNA)
RNA: GGGAGUUCUACAGUCCGACGAUCACCGGAGAGCCCUGCGGAGCCACUUUUCAGGACAGUUUUUGAUCGAGGCAAUGAAUUACUAGCAUGUGUUAAGGGGUCUUUCCUCUUCGGAACUGCUCCACUUUCUGACUGGAGAUGUCCCAACAGAGGAUUGAGCAUCA
B10: 64331861_64335390_557_CDS_ENSG00000197329_ENST00000358912|human|control|control (ssRNA)
RNA: GGGAGUUCUACAGUCCGACGAUCAUGCACAGUGCUGGGCUUCACCCCAUUUGCCUUAGGUCUUUUAAACAAAGCAAACCUACUUUUCCUCCUUCCUCUAUCGCCAUUUGGGAGAGACCCAUUAUACCCUAAGACAAUGAGUUCCAACAGAGGAUUGAGCAUCA
B11: chr9:74905015:74905016:+_ENSMUSG00000007656_ENSMUST00000169492|mus_hu|FALSE|FALSE (ssRNA)
RNA: GGGAGUUCUACAGUCCGACGAUCUGUGUUUGAAAUAUGUGACCUUUCUUCUAACUUGUGGUCUUAAACUUCUGUUUUACAAAAUCCAAAAGGUAAAUACAGAAGAAAUCAAUACAAUAGAGAUUAUAUUAAAUAAGAGUAACACAACAGAGGAUUGAGCAUCA
B12: chr1:225611761:225611762:-_ENSG00000143815_ENST00000272163|hu_mus|hu_hu_hu_mus_True|48_108 (ssRNA)
RNA: GGGAGUUCUACAGUCCGACGAUCCCAGGCCAUCGACCUCUGACCACUUCACCCUCAACAAACUUCCUACUUGGCAUUUUCUAAAAUUAACCUGCGCGCGCUCCGGCGGGAACUCCAGCCACUCCAGGACAGUCACCAGCAGCCCAACAGAGGAUUGAGCAUCA
B13: chr2:216981417:216981418:+_ENSG00000079246_ENST00000392132|hu_hu|hu_hu_hu_mus_True|8_38 (ssRNA)
RNA: GGGAGUUCUACAGUCCGACGAUCCUGAUACUGGUCCUUGCCAGCAAGGGCAUUAUCAGUGCCAUCUGUGCCAUAGAGGACUAACGCAAUCUCAUCUUUGUUCUCAGAAAAUACCUGUCGUUGGACAAACAUGGUUAUCACUUUCAACAGAGGAUUGAGCAUCA
B14: chr7:54825262:54825263:-_ENSG00000132432_ENST00000352861|hu_hu|hu_hu_hu_mus_False|68_98 (ssRNA)
RNA: GGGAGUUCUACAGUCCGACGAUCCUGCCGGCUGGGCACAAACUGCAGCAUUACCUGAUCCAUGUUUUACCCAACCGGGAUUGAGAGCGUAGAGACACGUAGCUCAGGAGAGAACCGAGCCCAACGGAACCGGAAGCUGGCAACCAACAGAGGAUUGAGCAUCA
B15: chr3:58389919:58389920:+_ENSMUSG00000075700_ENSMUST00000107924|mus_mus|motif|central (ssRNA)
RNA: GGGAGUUCUACAGUCCGACGAUCGCUAGGAGCUUGCAUGCCGAAAAAAGCAAAAGGAUCUUUGCCAACAAUUAUUAAGCCGGUUAAUACUAGUUUGAAGACUGACAGGAAAGAUGCUAUGUGUCUAUAAAUUGGUUGAGGGAGCAACAGAGGAUUGAGCAUCA
B16: chr16:57283700:57283701:+_ENSG00000102931_ENST00000219204|hu_mus|FALSE|FALSE (ssRNA)
RNA: GGGAGUUCUACAGUCCGACGAUCGGUUGUGAAGGCCGCCAUGUUGAAGCCUGGGAUACGCUCCAGCAACUGCUCUUCAAUGUACUUCUCUACCAGGGAGAUAUAUUCAUUAAAAAUGGGUGUAUAGGUGAGUUUAUUCUCUUCCAACAGAGGAUUGAGCAUCA
B17: chr2:48026839:48026840:+_ENSG00000116062_ENST00000540021|hu_hu|hu_hu_hu_mus_False|38_48 (ssRNA)
RNA: GGGAGUUCUACAGUCCGACGAUCAUAGUGAGCCACUAGCGUCCUAAAUCUGGAACAGUGGCGGUCAUCCGAAAACUGGCCGAUGAAAAACUUUCCCAGUGAAGUAUCCACAAAGCAAACACCAUACACACGAGUGUGACCAGACAACAGAGGAUUGAGCAUCA
B18: chr1:90180218:90180219:+_ENSG00000171488_ENST00000370454|hu_mus|FALSE|FALSE (ssRNA)
RNA: GGGAGUUCUACAGUCCGACGAUCACAAGUGAUGGAAAAAUACUGUAAACUUUGCAGAACUCCGAUUUCGGGCGGGAUGAAGCGGAUGUCGUUAUAGGACAAGUCCAGGUAUCUGAUUUUGUUGCACAGGAAGAGGUGGGAGGGCAACAGAGGAUUGAGCAUCA
B19: chr11:16760304:16760305:+_ENSG00000110696_ENST00000422258|hu_mus|FALSE|FALSE (ssRNA)
RNA: GGGAGUUCUACAGUCCGACGAUCACCCCGUGCGGGUGAGACUCCCGGGCAGCACUCAUCGUAGCUGGGAUCCUGACGGGGAUAUGCCAAACACACUCGCAGUUCUCCUCAAACGCGACACCAGCAGCCCUCACCCAGCCGCCGCAACAGAGGAUUGAGCAUCA
B20: chr6:40197388:40197389:+_ENSMUSG00000057716_ENSMUST00000061740|mus_mus|mus_mus_mus_hu_False|88_108 (ssRNA)
RNA: GGGAGUUCUACAGUCCGACGAUCGAGUUGUCAGUUUGGAUUUAUUCUCAGUUUGGGUGGGUGCUAGCCACUAAGACUGUUAUUUUGGGAUUCAUGGCCUUGAAUAUCAAGAGGGAAAGGAAGAGGAUGGAAAGAGUCAAGAGUCAACAGAGGAUUGAGCAUCA
B21: 22032003_22032123_2356_3pUTR_ENSG00000154059_ENST00000284202|human|control|control (ssRNA)
RNA: GGGAGUUCUACAGUCCGACGAUCGAAAAAGACCUGUUUGUCCAAUUCUCUGUGCUUUCCAUGCUCUAGCACCAUCCCAAAGUUGCCUCCUAACUUCUGUUCCCUCCCUGGGAAGGGAAGUCCAGGCAAAUCUGUGAUCAGUUACAACAGAGGAUUGAGCAUCA
B22: chr3:176740097:176740098:-_ENSG00000177565_ENST00000430069|hu_mus|hu_hu_hu_mus_True|8_18 (ssRNA)
RNA: GGGAGUUCUACAGUCCGACGAUCUGUUUUGUAUACCACAAAAGGAGGCACUUUCAGUAUCUGCAAAAGGUGUUUAGUCCUAAAACAUACUCACCUAGAGGAUAACUCAGGAAAACAUCAAUACAAUCUAGUAUCUAUACUCCACAACAGAGGAUUGAGCAUCA

The binders below were run against T1, UNK ZnF1-3 (human, UniProt Q9C0B0 31-174) (assay: nsRBNS (natural sequence RNA bind-n-seq); RBNS binding buffer (assumed for nsRBNS): 25 mM Tris pH 7.5, 150 mM KCl, 3 mM MgCl2, 0.01% Triton X-100, 500 ug/ml BSA, 20 U/ml SUPERase-In, 4 C; UNK is unkempt and MSI1 is Musashi-1; names of the RNAs are library labels; protein concentration not given here; high values mean tight binding).
T1 sequence: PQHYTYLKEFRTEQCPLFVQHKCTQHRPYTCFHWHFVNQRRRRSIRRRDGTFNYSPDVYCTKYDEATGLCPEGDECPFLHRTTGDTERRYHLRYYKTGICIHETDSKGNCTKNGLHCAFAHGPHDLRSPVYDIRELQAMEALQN

Binder | binding signal [enrichment R]
B1 | 0.943
B2 | 0.753
B3 | 1.33
B4 | 1.27
B5 | 0.853
B6 | 1.02
B7 | 0.675
B8 | 0.656
B9 | 1.11
B10 | 0.905
B11 | 2.28
B12 | 1.78
B13 | 0.631
B14 | 0.79
B15 | 1.52
B16 | 0.894
B17 | 1.15
B18 | 1.52
B19 | 0.761
B20 | 1.91
B21 | 0.54
B22 | 0.835
